{"source": "PubChem BioAssay AID1030", "about": "(National Center for Advancing Translational Sciences (NCATS), 2008)", "note": "“And” between values parts separate entries of the source, which are not always exact repeats. Equal entries are not always repeated. Among all 220,000 compounds or so, about 16,000 (7.3%) were called active. The shares of active, inactive and inconclusive entries below differ from those in the screen. Calls follow the shape of the dose curve; as a rule, active = well fitted inhibition curve with a large enough effect (not every such curve was filed as active); inconclusive = small, poorly fitted or top-dose-only effect, or another doubt; inactive = no such curve, though single readings can be large or run the other way. Potencies of inconclusive entries are left out as doubtful fits. The source holds several records for some structures; these can differ, active in one and inactive in another. Potency is read from the fitted curve at half-maximal effect; tags tell the direction and shape of the fitted curve."}
{"biological_target": "Aldehyde dehydrogenase 1A1 (Homo sapiens) (UniProt P00352)", "sequence (P00352 whole entry, looked up)": "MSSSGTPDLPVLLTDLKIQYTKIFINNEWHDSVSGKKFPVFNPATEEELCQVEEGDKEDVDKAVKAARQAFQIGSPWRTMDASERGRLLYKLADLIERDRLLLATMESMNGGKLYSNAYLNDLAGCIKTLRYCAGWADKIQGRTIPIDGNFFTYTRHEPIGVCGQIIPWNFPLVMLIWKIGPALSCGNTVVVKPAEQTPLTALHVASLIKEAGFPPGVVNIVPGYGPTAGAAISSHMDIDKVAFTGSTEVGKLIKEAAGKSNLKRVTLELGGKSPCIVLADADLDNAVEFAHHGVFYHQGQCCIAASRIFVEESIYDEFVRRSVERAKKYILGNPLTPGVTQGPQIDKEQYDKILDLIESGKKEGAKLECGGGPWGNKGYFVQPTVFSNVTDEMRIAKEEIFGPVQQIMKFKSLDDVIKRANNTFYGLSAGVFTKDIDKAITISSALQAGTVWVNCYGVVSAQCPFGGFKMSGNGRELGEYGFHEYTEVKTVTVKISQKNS", "assay": "qHTS Assay for Inhibitors of Aldehyde Dehydrogenase 1 (ALDH1A1);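 as to activity, negative = inhibition: plate controls were no enzyme wells and a reference inhibitor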", "settings": "Purified ALDH1A1, NADH fluorescence, propionaldehyde substrate; series mostly up to 75.3 µM; activity, negative = inhibition: at the top concentration"}
{"smiles": "Cc1nc(-c2cccc3ccccc23)ccc1C(=O)O", "Potency": "inconclusive [inhibitor, single point]"}
{"smiles": "COc1ccc(-c2c(C)cc3oc(=O)cc(-c4ccccc4)c3c2C)cc1", "Potency": "inconclusive [inhibitor, single point]"}
{"smiles": "O=C(Nc1ccc(Cl)cc1)NC1CCCC1Cc1ccco1", "note": "(centres undefined)", "Potency": "active: 12.6 µM"}
{"smiles": "c1ccc(SCc2nc(-c3cccnc3)no2)cc1", "Potency": "inconclusive [inhibitor, single point]"}
{"smiles": "CCc1nnc(SCc2ccc(OC(C)C)cc2)n1N", "activity, negative = inhibition": "inactive: -2.13%"}
{"smiles": "CC1=C(C#N)C(c2ccccc2)C2=C(N1)c1ccccc1C2=O", "note": "(centres undefined)", "Potency": "active: 12.6 µM"}
{"smiles": "CCc1ccc(Oc2nc([N+](=O)[O-])nn2C)cc1", "activity, negative = inhibition": "inactive: -1.45%"}
{"smiles": "CCOC(=O)C1CCN(c2c(N3CCN(c4ccccc4OC)CC3)c(=O)c2=O)CC1", "activity, negative = inhibition": "inactive: 1.09%"}
{"smiles": "O=C(Nc1ccc(Cl)cc1)c1ccc2nsnc2c1", "activity, negative = inhibition": "inactive: -6.17%"}
{"smiles": "CCCCSCCCNC(=O)CS(=O)Cc1nc(-c2cccc(C)c2)oc1C", "note": "(centres undefined)", "Potency": "inconclusive [inhibitor, single point]"}
{"smiles": "COC(=O)c1sccc1NC(=O)c1c(-c2ccccc2)noc1C", "Potency": "active: 8.91 µM"}
{"smiles": "O=C1C2C3C=CC(C3)C2C(=O)N1c1ccc(-c2nc3ccccc3c(=O)o2)cc1", "note": "(centres undefined)", "Potency": "inconclusive [inhibitor, single point]"}
{"smiles": "CC(C#N)Sc1ncnc2sc3c(c12)CCC3", "note": "(centres undefined)", "Potency": "inconclusive [inhibitor, single point]"}
{"smiles": "COc1cc(/C=C(\\C#N)c2nnc(N3CCOCC3)n2-c2ccccc2)ccc1O", "Potency": "inconclusive [inhibitor, single point]"}
{"smiles": "S=C(Nc1ccc2nsnc2c1)NC1CCCCC1", "Potency": "inconclusive [inhibitor, single point]"}
{"smiles": "Nc1ccc(SCCN2C(=O)c3ccccc3C2=O)cc1", "activity, negative = inhibition": "inactive: 1.44%"}
{"smiles": "Cc1cc(C)n(-c2nc3ccccc3[nH]c2=O)n1", "Potency": "inconclusive [inhibitor, single point]"}
{"smiles": "COc1cc(S(=O)(=O)N(Cc2ccco2)C2CCCC2)ccc1-n1cnnn1", "Potency": "inconclusive [inhibitor, single point]"}
{"smiles": "OC1(C(O)(c2ccc(-c3ccccc3)cc2)c2ccc(-c3ccccc3)cc2)CCCCC1", "activity, negative = inhibition": "inactive: 6.86% [at 13.5 µM]"}
{"smiles": "Cc1ccsc1C(=O)N1CCCC(CCC(=O)NCc2ccc(F)c(F)c2)C1", "note": "(centres undefined)", "Potency": "inconclusive [inhibitor, partial curve]"}
{"smiles": "CN(CCNC(=O)C1CCN(S(=O)(=O)c2cnc[nH]2)CC1)Cc1ccccc1", "activity, negative = inhibition": "inactive: -14.4%"}
{"smiles": "CCOC(=O)C(C)Sc1nnc(NC(=O)c2ccc(C)c([N+](=O)[O-])c2)s1", "note": "(centres undefined)", "Potency": "inconclusive [inhibitor, single point]"}
{"smiles": "Cc1nc(N2CCCCC2)c(C#N)c(C)c1[N+](=O)[O-]", "activity, negative = inhibition": "inactive: -12.1%"}
{"smiles": "COc1cccc(NC(=O)Cn2cc3c(n2)CCCCC3)c1", "Potency": "inconclusive [inhibitor, single point]"}
{"smiles": "CC(O)[C@@H](O)[C@H]1CNc2nc(N)[nH]c(=O)c2N1", "note": "(some centres undefined)", "Potency": "inconclusive [inhibitor, partial curve]"}
{"smiles": "Cc1ccc(C(=O)C(C)OC(=O)c2ccccc2[N+](=O)[O-])cc1", "note": "(centres undefined)", "activity, negative = inhibition": "inactive: -2.33%"}
{"smiles": "N#C/C(=C\\c1ccc[nH]1)C(=O)N1CCCCC1", "Potency": "inconclusive [inhibitor, single point]"}
{"smiles": "O=C(Nc1ccc(NC(=O)c2ccco2)cc1)c1cnccn1", "Potency": "active: 25.1 µM"}
{"smiles": "COCCn1c(=O)cnc2cnc(OC)nc21", "activity, negative = inhibition": "inactive: -0.441%"}
{"smiles": "COc1ccc(C(=O)CSc2nc(N)nc(SC)c2C#N)cc1", "Potency": "inconclusive [inhibitor, single point]"}
{"smiles": "CCCCN1Cc2cc(C(=O)c3cc(OC)ccc3O)cnc2NC1=O", "Potency": "inconclusive [inhibitor, single point]"}
{"smiles": "CCC(C(=O)OC)n1cnc2c(nnn2-c2ccc(OC)cc2)c1=O", "note": "(centres undefined)", "activity, negative = inhibition": "inactive: -15.2%"}
{"smiles": "Cc1cc(-c2csc(N)n2)c(C)n1-c1ccccc1", "Potency": "inconclusive [inhibitor, partial curve]"}
{"smiles": "CC(C)(C)OC(=O)NCC12C=CC(O1)C1C(=O)N(Cc3ccccc3)C(=O)C12", "note": "(centres undefined)", "Potency": "active: 3.16 µM"}
{"smiles": "CCOc1ccccc1N1CSC2=C(C#N)C(c3c(OC)ccc4ccccc34)CC(=O)N2C1", "note": "(centres undefined)", "Potency": "active: 4.47 µM"}
{"smiles": "CC(C)CN1C(=O)c2ccc(NC(=O)c3cccs3)cc2C1=O", "Potency": "inconclusive [inhibitor, partial curve]"}
{"smiles": "CCOC(=O)c1nn(-c2ccccc2)c(C#N)c1N", "Potency": "inconclusive [inhibitor, partial curve]"}
{"smiles": "O=C(Nc1ccc(N2CCCC2)cc1)c1cccc(-c2cc3ccccc3oc2=O)c1", "Potency": "active: 2.24 µM"}
{"smiles": "CC(=O)c1ccc(NC(=O)C2(c3ccccc3)CCOCC2)cc1", "activity, negative = inhibition": "inactive: 14.6%"}
{"smiles": "O=C(c1cccc(S(=O)(=O)Nc2ccccc2Cl)c1)N1CCN(C(=O)c2ccco2)CC1", "Potency": "inconclusive [inhibitor, single point]"}
{"smiles": "Fc1ccc(CNc2nc3ccccc3n3nnnc23)cc1", "activity, negative = inhibition": "inactive: -5.38%"}
{"smiles": "CCCOc1ccc(C2=NNC(c3cccs3)=Nc3ccc(OC)cc32)cc1", "Potency": "inconclusive [inhibitor, single point]"}
{"smiles": "CCCCC(CC)CNS(=O)(=O)c1ccc2c(c1)CCN2C(=O)CCC(=O)O", "note": "(centres undefined)", "Potency": "inconclusive [inhibitor, single point]"}
{"smiles": "O=c1cc(-c2ccc(O)cc2)oc2cc(O)cc(O)c12", "Potency": "inactive and active: 1.78 µM"}
{"smiles": "CSc1ccc(-c2nc(CSCC(=O)NCCCN3CCOCC3)c(C)o2)cc1", "Potency": "inconclusive [inhibitor, single point]"}
{"smiles": "Cc1csc(NC(=O)CSc2nc3sc(C)c(C)c3c(=O)[nH]2)n1", "Potency": "active: 17.8 µM"}
{"smiles": "CCOC(=O)c1cccc(NC(=O)CSc2nnc(CNc3ccc(C)cc3)n2CC)c1", "Potency": "inconclusive [inhibitor, single point]"}
{"smiles": "COc1cccc(C(=O)Nc2cccc(-c3ccc4nncn4n3)c2)c1OC", "activity, negative = inhibition": "inactive: 0.809%"}
{"smiles": "CC(=O)Nc1ccc(C(=O)OCc2ccc(Cl)cc2)cc1", "activity, negative = inhibition": "inactive: 14.2%"}
